# Some of the results follow.
# B1: a L Fucosidase (Streptosporangium roseum), D2B1P1_STRRD (protein)
# chain: MRRKLLLVPAVGLLVIGSIFATQPVASADTPPVYEPTVESLNSHPVPQWFNDDKFGIFIHWGAYSVPAWGPRGSYAEWYGNYMNAGGSATNAHHKATYGQDFNYDAFLQQWKAEKFDPADWVKLFKDAGAKYFVLTSKHHEGMALWDSKSSGRDSVDLGPGRDLAKELFDAARKDEAKLKAGFYYSLYEWYNPAYTGRPATNPYTGAEIPYTGAPGGGDYVKDYMLPQMRELIDGYDPDIIWCDGQWEKPASYWNTAGVIADYYNKALNSGKEVAVANRCKIQSGNLDSPELDFQTPEYTVKPDIDPVKWESSRGIAHSYGYNQNEPEEDHLTSDQLVDSLVDIVSKNGNLLLDIGPKADGTIPEIQRQRLLDIGAWLKANGEAIYGTTYWNRAEEKGGPDDVRYTAKDATLYATALKWPGEQLTLGADLPVDHSTRITMLGSGARLSWSRDEQGRVVVNTPQEAGKHAYVFKIETPGVRSLLRTSSSLAKEIAPGRTISGELTVTNPGKRHTPATKLSLTVPQGWTATLGAPRVRPLGPGESVKVPISVSAPEGVAPAPYTLGLYQRTGRMGTTTALPLTVNRPNLSLGKPATQKSTGYDAPASRAVDGNTGGDWSAGSTTHTAEPEKQAWWQVDLGASARLDSVDVWNRLDCCADRLKDFWVMASDQPFTTDDLDQARTAPGVTAVHVGEQAGSPSKVKLPEGTRGRYVRIQLASPSNPLSLAEVQVRGSMARPNLSLGKPATQKSTGYDAPASRAVDGNTGGDWSAGSTTHTAEPEKQAWWQVDLGASARLDSVDVWNRLDCCADRLKDFWVMASDQPFTTDDLDQARTAPGVTAVHVGEQAGSPSKVKLPEGTRGRYVRIQLASPSNPLSLAEVQVRLEHHHHHHS
# What was measured:
# Assay in all cases: glycan array binding signal (z-score within array); higher = stronger binding
# Conditions in all cases: glycan notation: IUPAC condensed, linker removed
# [1] = target: Gal(b1-4)GalNAc(b1-3)[Fuc(a1-2)]Gal(b1-4)GlcNAc
# How it was run: (§1)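 Glycan array data came from 3228 arrays in the Consortium for Functional Glycomics database, and only arrays with an available protein sequence were kept. Glycan names were put into IUPAC-condensed notation, and columns mapping to the same glycan were averaged. The binding signal is a within-array Z-score, averaged across arrays of one protein sequence run at different concentrations or buffers and across linkers. A negative Z-score can be read as non-binding.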
# Gal(b1-4)Glc = target: Gal(b1-4)Glc
# How it was run: as §1
# Gal(b1-4)Glc6S = target: Gal(b1-4)Glc6S
# How it was run: as §1
# Gal(b1-4)GlcNAc = target: Gal(b1-4)GlcNAc
# How it was run: as §1
# [2] = target: Gal(b1-4)GlcNAc(a1-6)Gal(b1-4)GlcNAc
# How it was run: as §1
# Gal(b1-4)GlcNAc(b1-2)Man = target: Gal(b1-4)GlcNAc(b1-2)Man
# How it was run: as §1
# [3] = target: Gal(b1-4)GlcNAc(b1-2)Man(a1-3)Man(b1-4)GlcNAc(b1-4)GlcNAc
# How it was run: as §1
# [4] = target: Gal(b1-4)GlcNAc(b1-2)Man(a1-3)[Gal(b1-4)GlcNAc(b1-2)Man(a1-6)]Man(b1-4)GlcNAc(b1-4)GlcNAc
# How it was run: as §1
# [5] = target: Gal(b1-4)GlcNAc(b1-2)Man(a1-3)[Gal(b1-4)GlcNAc(b1-2)Man(a1-6)]Man(b1-4)GlcNAc(b1-4)[Fuc(a1-6)]GlcNAc
# How it was run: as §1
# [6] = target: Gal(b1-4)GlcNAc(b1-2)Man(a1-3)[Gal(b1-4)GlcNAc(b1-2)Man(a1-6)][Gal(b1-4)GlcNAc(b1-4)]Man(b1-4)GlcNAc(b1-4)[Fuc(a1-6)]GlcNAc
# How it was run: as §1
# [7] = target: Gal(b1-4)GlcNAc(b1-2)Man(a1-3)[Gal(b1-4)GlcNAc(b1-2)Man(a1-6)][GlcNAc(b1-4)]Man(b1-4)GlcNAc(b1-4)[Fuc(a1-6)]GlcNAc
# How it was run: as §1
# [8] = target: Gal(b1-4)GlcNAc(b1-2)Man(a1-3)[GlcNAc(b1-2)Man(a1-6)]Man(b1-4)GlcNAc(b1-4)GlcNAc
# How it was run: as §1
# [9] = target: Gal(b1-4)GlcNAc(b1-2)Man(a1-3)[GlcNAc(b1-4)][Gal(b1-4)GlcNAc(b1-2)Man(a1-6)]Man(b1-4)GlcNAc(b1-4)GlcNAc
# How it was run: as §1
# [10] = target: Gal(b1-4)GlcNAc(b1-2)Man(a1-3)[Man(a1-6)]Man(b1-4)GlcNAc(b1-4)GlcNAc
# How it was run: as §1
# [11] = target: Gal(b1-4)GlcNAc(b1-2)Man(a1-6)Man(b1-4)GlcNAc(b1-4)GlcNAc
# How it was run: as §1
# [12] = target: Gal(b1-4)GlcNAc(b1-2)Man(a1-6)[GlcNAc(b1-2)Man(a1-3)]Man(b1-4)GlcNAc(b1-4)GlcNAc
# How it was run: as §1
# [13] = target: Gal(b1-4)GlcNAc(b1-2)Man(a1-6)[Man(a1-3)]Man(b1-4)GlcNAc(b1-4)GlcNAc
# How it was run: as §1
# [14] = target: Gal(b1-4)GlcNAc(b1-2)[Gal(b1-4)GlcNAc(b1-4)]Man(a1-3)[Gal(b1-4)GlcNAc(b1-2)Man(a1-6)]Man(b1-4)GlcNAc(b1-4)GlcNAc
# How it was run: as §1
# [15] = target: Gal(b1-4)GlcNAc(b1-2)[Gal(b1-4)GlcNAc(b1-4)]Man(a1-3)[Gal(b1-4)GlcNAc(b1-2)[Gal(b1-4)GlcNAc(b1-6)]Man(a1-6)]Man(b1-4)GlcNAc(b1-4)GlcNAc
# How it was run: as §1
# [16] = target: Gal(b1-4)GlcNAc(b1-2)[Gal(b1-4)GlcNAc(b1-4)]Man(a1-3)[GlcNAc(b1-4)][Gal(b1-4)GlcNAc(b1-2)Man(a1-6)]Man(b1-4)GlcNAc(b1-4)GlcNAc
# How it was run: as §1
# [17] = target: Gal(b1-4)GlcNAc(b1-2)[Gal(b1-4)GlcNAc(b1-4)]Man(a1-3)[GlcNAc(b1-4)][Gal(b1-4)GlcNAc(b1-2)[Gal(b1-4)GlcNAc(b1-6)]Man(a1-6)]Man(b1-4)GlcNAc(b1-4)GlcNAc
# How it was run: as §1
# [18] = target: Gal(b1-4)GlcNAc(b1-2)[Gal(b1-4)GlcNAc(b1-6)]Man(a1-6)[Gal(b1-4)GlcNAc(b1-2)Man(a1-3)]Man(b1-4)GlcNAc(b1-4)GlcNAc
# How it was run: as §1
# [19] = target: Gal(b1-4)GlcNAc(b1-2)[Gal(b1-4)GlcNAc(b1-6)]Man(a1-6)[Gal(b1-4)GlcNAc(b1-2)Man(a1-3)]Man(b1-4)GlcNAc(b1-4)[Fuc(a1-6)]GlcNAc
# How it was run: as §1
# [20] = target: Gal(b1-4)GlcNAc(b1-2)[Gal(b1-4)GlcNAc(b1-6)]Man(a1-6)[GlcNAc(b1-4)][Gal(b1-4)GlcNAc(b1-2)Man(a1-3)]Man(b1-4)GlcNAc(b1-4)GlcNAc
# How it was run: as §1
# [21] = target: Gal(b1-4)GlcNAc(b1-2)[Gal(b1-4)GlcNAc(b1-6)]Man(a1-6)[GlcNAc(b1-4)][Gal(b1-4)GlcNAc(b1-2)[Gal(b1-4)GlcNAc(b1-4)]Man(a1-3)]Man(b1-4)GlcNAc(b1-4)[Fuc(a1-6)]GlcNAc
# How it was run: as §1
# [22] = target: Gal(b1-4)GlcNAc(b1-3)Gal(b1-3)GalNAc
# How it was run: as §1
# [23] = target: Gal(b1-4)GlcNAc(b1-3)Gal(b1-3)GlcNAc
# How it was run: as §1
# [24] = target: Gal(b1-4)GlcNAc(b1-3)Gal(b1-4)Glc
# How it was run: as §1
# [25] = target: Gal(b1-4)GlcNAc(b1-3)Gal(b1-4)GlcNAc
# How it was run: as §1
# [26] = target: Gal(b1-4)GlcNAc(b1-3)Gal(b1-4)GlcNAc(b1-2)Man(a1-3)[Gal(b1-4)GlcNAc(b1-3)Gal(b1-4)GlcNAc(b1-2)Man(a1-6)]Man(b1-4)GlcNAc(b1-4)GlcNAc
# How it was run: as §1
binder,measurement,setting,value
B1,glycan array binding signal (z-score),[1],-0.503
same,glycan array binding signal (z-score),Gal(b1-4)Glc,-0.181
same,glycan array binding signal (z-score),Gal(b1-4)Glc6S,-0.446
same,glycan array binding signal (z-score),Gal(b1-4)GlcNAc,-0.42
same,glycan array binding signal (z-score),[2],-0.439
same,glycan array binding signal (z-score),Gal(b1-4)GlcNAc(b1-2)Man,0.742
same,glycan array binding signal (z-score),[3],0.732
same,glycan array binding signal (z-score),[4],0.443
same,glycan array binding signal (z-score),[5],-0.175
same,glycan array binding signal (z-score),[6],1.72
same,glycan array binding signal (z-score),[7],1.9
same,glycan array binding signal (z-score),[8],-0.371
same,glycan array binding signal (z-score),[9],-0.239
same,glycan array binding signal (z-score),[10],1.25
same,glycan array binding signal (z-score),[11],-0.228
same,glycan array binding signal (z-score),[12],-0.121
same,glycan array binding signal (z-score),[13],-0.263
same,glycan array binding signal (z-score),[14],-0.455
same,glycan array binding signal (z-score),[15],-0.478
same,glycan array binding signal (z-score),[16],-0.258
same,glycan array binding signal (z-score),[17],-0.164
same,glycan array binding signal (z-score),[18],-0.309
same,glycan array binding signal (z-score),[19],-0.467
same,glycan array binding signal (z-score),[20],0.002
same,glycan array binding signal (z-score),[21],0.133
same,glycan array binding signal (z-score),[22],-0.541
same,glycan array binding signal (z-score),[23],-0.307
same,glycan array binding signal (z-score),[24],-0.33
same,glycan array binding signal (z-score),[25],-0.184
same,glycan array binding signal (z-score),[26],0.009

# Reference: the supplement of paper PMC8728848
